Consider 20 molecules from PMC9911399, “Two distinct binding modes provide the RNA-binding protein RbFox with extraordinary sequence specificity”.

Where a chain is given by its changes, count along the chain named. This is one part of the list.

To fix the notation:
T1: RBFOX1 RRM (Homo sapiens, UniProt Q9NWB1 109-208)
T1 sequence: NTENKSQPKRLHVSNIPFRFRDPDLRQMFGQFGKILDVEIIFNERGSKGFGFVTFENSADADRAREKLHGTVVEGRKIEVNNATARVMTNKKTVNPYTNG

B1: UUAUUAA (DNA:RNA)
RNA: GGGAGACCGGAAUUCAGAUUGUCCUUAUUAAUUAAAUCCCGUCGUAGCCACCA
DNA 1: CAATCTGAATTCCGGTCTCCC
DNA 2: TGGTGGCTACGACGGGATT
B2: CUAUGAU (DNA:RNA)
RNA: B1 RNA with U25C, U29G, A31U
DNA 1: CAATCTGAATTCCGGTCTCCC
DNA 2: TGGTGGCTACGACGGGATT
B3: UUUCUCA (DNA:RNA)
RNA: B1 RNA with A27U, U28C, A30C
DNA 1: CAATCTGAATTCCGGTCTCCC
DNA 2: TGGTGGCTACGACGGGATT
B4: AGUACUG (DNA:RNA)
RNA: GGGAGACCGGAAUUCAGAUUGUCCAGUACUGUUAAAUCCCGUCGUAGCCACCA
DNA 1: CAATCTGAATTCCGGTCTCCC
DNA 2: TGGTGGCTACGACGGGATT
B5: ACACCAC (DNA:RNA)
RNA: B4 RNA with G26C, U27A, A28C, U30A, G31C
DNA 1: CAATCTGAATTCCGGTCTCCC
DNA 2: TGGTGGCTACGACGGGATT
B6: CUGAUCC (DNA:RNA)
RNA: B1 RNA with U25C, A27G, U28A, A30C, A31C
DNA 1: CAATCTGAATTCCGGTCTCCC
DNA 2: TGGTGGCTACGACGGGATT
B7: AAUGACG (DNA:RNA)
RNA: B4 RNA with G26A, A28G, C29A, U30C
DNA 1: CAATCTGAATTCCGGTCTCCC
DNA 2: TGGTGGCTACGACGGGATT
B8: AAACAGG (DNA:RNA)
RNA: B4 RNA with G26A, U27A, A28C, C29A, U30G
DNA 1: CAATCTGAATTCCGGTCTCCC
DNA 2: TGGTGGCTACGACGGGATT
B9: GGUCGCU (DNA:RNA)
RNA: B4 RNA with A25G, A28C, C29G, U30C, G31U
DNA 1: CAATCTGAATTCCGGTCTCCC
DNA 2: TGGTGGCTACGACGGGATT
B10: AACAAUG (DNA:RNA)
RNA: B4 RNA with G26A, U27C, C29A
DNA 1: CAATCTGAATTCCGGTCTCCC
DNA 2: TGGTGGCTACGACGGGATT
B11: UGUGUAA (DNA:RNA)
RNA: B1 RNA with U26G, A27U, U28G
DNA 1: CAATCTGAATTCCGGTCTCCC
DNA 2: TGGTGGCTACGACGGGATT
B12: GCCGCCC (DNA:RNA)
RNA: B4 RNA with A25G, G26C, U27C, A28G, U30C, G31C
DNA 1: CAATCTGAATTCCGGTCTCCC
DNA 2: TGGTGGCTACGACGGGATT
B13: ACGAAAC (DNA:RNA)
RNA: B4 RNA with G26C, U27G, C29A, U30A, G31C
DNA 1: CAATCTGAATTCCGGTCTCCC
DNA 2: TGGTGGCTACGACGGGATT
B14: ACAUGGG (DNA:RNA)
RNA: B4 RNA with G26C, U27A, A28U, C29G, U30G
DNA 1: CAATCTGAATTCCGGTCTCCC
DNA 2: TGGTGGCTACGACGGGATT
B15: CGGCAGG (DNA:RNA)
RNA: B4 RNA with A25C, U27G, A28C, C29A, U30G
DNA 1: CAATCTGAATTCCGGTCTCCC
DNA 2: TGGTGGCTACGACGGGATT
B16: UCCGGAC (DNA:RNA)
RNA: B1 RNA with U26C, A27C, U28G, U29G, A31C
DNA 1: CAATCTGAATTCCGGTCTCCC
DNA 2: TGGTGGCTACGACGGGATT
B17: AGGGAAG (DNA:RNA)
RNA: B4 RNA with U27G, A28G, C29A, U30A
DNA 1: CAATCTGAATTCCGGTCTCCC
DNA 2: TGGTGGCTACGACGGGATT
B18: ACUGAUU (DNA:RNA)
RNA: B4 RNA with G26C, A28G, C29A, G31U
DNA 1: CAATCTGAATTCCGGTCTCCC
DNA 2: TGGTGGCTACGACGGGATT
B19: UGCGAAC (DNA:RNA)
RNA: B1 RNA with U26G, A27C, U28G, U29A, A31C
DNA 1: CAATCTGAATTCCGGTCTCCC
DNA 2: TGGTGGCTACGACGGGATT
B20: ACUUCCU (DNA:RNA)
RNA: B4 RNA with G26C, A28U, U30C, G31U
DNA 1: CAATCTGAATTCCGGTCTCCC
DNA 2: TGGTGGCTACGACGGGATT

The assay addresses T1, RBFOX1 RRM. The assay is described as follows: EMSA; HiTS-Eq, 1 nM pool, 10 min; buffer printed only for the single-RNA assays: 10 mM Tris pH 7.5, 150 mM NaCl, 3.4 mM EDTA, 0.001% NP-40, 30 C. Particulars: tags: His6 N-terminal (pET28a); label: 5' 32P. In short, it runs like this: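 Purified wild-type or mutant RbFox RRM at increasing concentrations was equilibrated with 1 nM of 5′-radiolabelled RNA carrying 7 randomized nucleotides for 10 min in 50 µL. Unbound RNA was separated by 8% native PAGE and sequenced. Relative association constants came from read-count changes of each RNA species compared with the control reaction, normalised to the cognate motif.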
A general note: In EMSA bound probe runs differently from free probe, usually more slowly.
In the case of B1, the binding signal is 0.00893 KA relative to UGCAUGU.
As for B2, the figure is 0.0121 KA relative to UGCAUGU; as for B3, 0.00766 KA relative to UGCAUGU.
As to B4, the binding signal was 0.0112 KA relative to UGCAUGU.
As for B5, the figure is 0.000358 KA relative to UGCAUGU.
As for B6, the figure is 0.00751 KA relative to UGCAUGU; as for B7, 0.00561 KA relative to UGCAUGU.
Consider B8, for which the binding signal was 0.00287 KA relative to UGCAUGU.
The result for B9 reads 0.0119 KA relative to UGCAUGU; that for B10, 0.00446 KA relative to UGCAUGU.
On to B11, for which the binding signal is 0.0108 KA relative to UGCAUGU.
As for B12, the figure is 0.0117 KA relative to UGCAUGU.
As to B13, the binding signal is 0.00351 KA relative to UGCAUGU.
The result for B14 reads 0.0064 KA relative to UGCAUGU; that for B15, 0.0105 KA relative to UGCAUGU; that for B16, 0.00639 KA relative to UGCAUGU.
As for B17, the figure is 0.0177 KA relative to UGCAUGU; as for B18, 0.00846 KA relative to UGCAUGU; as for B19, 0.0141 KA relative to UGCAUGU.
As for B20, the figure is 0.00215 KA relative to UGCAUGU.
